The source of these data is the antibiotic and cytotoxicity screens of Wong et al. (2023).

One experiment deals with HSkMC. The experiment can be described thus: cytotoxicity call (relative viability < 0.9). As to conditions: 10 µM.
The subject of the next experiment is HepG2. The experiment can be described thus: cytotoxicity call (relative viability < 0.9). The conditions noted are these: 10 µM.
Another experiment relates to S. aureus RN4220. The experiment can be described thus: growth inhibition call (relative growth <= 0.2). As to conditions: 50 µM.

This is one part of the list.

For `O=C(C[C@@H]1CC[C@@H]2[C@H](COC[C@@H](O)CN2S(=O)(=O)c2ccc(Cl)cc2)O1)NCC1CCCCC1`, the cytotoxicity call in the experiment with HSkMC and in the experiment on HepG2 was “inactive” in each case. Besides, the growth inhibition call in the experiment with S. aureus RN4220 is “inactive”.
With `CC(C)NC(=O)N(C)C[C@@H]1Oc2cc(C#Cc3cccc(F)c3)ccc2S(=O)(=O)N([C@H](C)CO)C[C@@H]1C`, the cytotoxicity call in the experiment with HSkMC and with HepG2 was “inactive” in each case. The growth inhibition call in the experiment on S. aureus RN4220 was “inactive”.
With `C[C@@H]1CN([C@@H](C)CO)C(=O)c2cccc(NS(=O)(=O)c3cn(C)cn3)c2O[C@H]1CN(C)Cc1ccc(C(=O)O)cc1`, the cytotoxicity call with HSkMC and in the experiment on HepG2 was “inactive” throughout. Moreover, the growth inhibition call in the experiment on S. aureus RN4220 was “inactive”.
Turning to `C[C@@H]1CN([C@H](C)CO)C(=O)c2cc(NC(=O)Nc3ccc(C(F)(F)F)cc3)ccc2O[C@@H](C)CCCCO[C@@H]1CN(C)Cc1ccncc1`, the cytotoxicity call in the experiment on HSkMC and in the experiment on HepG2 was “active” throughout. Further, the growth inhibition call with S. aureus RN4220 is “inactive”.
For `C=CCOC(=O)[C@H]1[C@@H]2C(=O)O[C@@H](c3ccccc3)[C@@H](c3ccccc3)N2[C@@H](c2ccc(OCCOC(=O)[C@H]3C[C@H]4C(=O)N[C@@H](CC(C)C)C(=O)N4[C@H]3c3cccc(OCCO)c3)cc2)[C@]12C(=O)Nc1ccc(I)cc12`, the cytotoxicity call in the experiment on HSkMC and in the experiment with HepG2 was “inactive” in each case. For the same compound, the growth inhibition call in the experiment on S. aureus RN4220 is “inactive”.
As to `Cc1cnc(C(=O)NCCc2ccc(S(=O)(=O)NC(=O)NC3CCCCC3)cc2)cn1`, the cytotoxicity call in the experiment on HSkMC and in the experiment on HepG2 was “inactive” in each case. In addition, in the experiment with S. aureus RN4220, the growth inhibition call is “inactive”.
`O=C(C[C@H]1CC=CCC[C@H](Cc2ccc(F)cc2)C(=O)OC[C@@H](Cc2ccccc2)NC1=O)NCCO`: the cytotoxicity call with HSkMC and in the experiment with HepG2 was “inactive” in each case. Also, in the experiment on S. aureus RN4220, the growth inhibition call is “inactive”.
Consider `C[C@H]1CN([C@@H](C)CO)C(=O)c2cccc(NC(=O)Nc3ccc(C(F)(F)F)cc3)c2O[C@H]1CN(C)CC1CCCCC1`, for which, in the experiment on HSkMC, the cytotoxicity call was “inactive”. Also, the cytotoxicity call with HepG2 is “active”. The growth inhibition call with S. aureus RN4220 is “inactive”.
On to `CCCC(=O)Nc1ccc2c(c1)OC[C@H](C)N(S(=O)(=O)c1cn(C)cn1)C[C@H](C)[C@@H](OC)CN(C)C2=O`, for which the cytotoxicity call with HSkMC and with HepG2 was “inactive” in each case. Also, the growth inhibition call with S. aureus RN4220 was “inactive”.
As to `C[C@@H]1CCCCO[C@H](CN(C)S(=O)(=O)c2ccccc2)[C@H](C)CN([C@H](C)CO)C(=O)c2cc(NC(=O)Nc3ccc(C(F)(F)F)cc3)ccc2O1`, the cytotoxicity call in the experiment with HSkMC and with HepG2 was “inactive” in each case. In addition, in the experiment on S. aureus RN4220, the growth inhibition call is “inactive”.
As for `OC[C@H]1NC[C@@H](O)[C@@H](O)[C@@H]1O`, the cytotoxicity call in the experiment with HSkMC and in the experiment on HepG2 was “inactive” each time. Besides, the growth inhibition call in the experiment with S. aureus RN4220 was “inactive”.
Turning to `C[C@@H]1CN([C@H](C)CO)C(=O)Cc2cc(NC(=O)Nc3cccc4ccccc34)ccc2O[C@@H]1CN(C)Cc1ccc(C(=O)O)cc1`, the cytotoxicity call in the experiment on HSkMC and with HepG2 was “inactive” each time. Further, the growth inhibition call with S. aureus RN4220 was “inactive”.
`COc1cccc(NC(=O)N2C[C@@H](O)COC[C@@H]3O[C@H](CC(=O)NCc4ccccc4F)CC[C@H]32)c1`: the cytotoxicity call with HSkMC and with HepG2 was “inactive” throughout. For the same compound, the growth inhibition call in the experiment on S. aureus RN4220 is “inactive”.
Consider `NC[C@@H](CO)Cc1ccsc1`, for which the cytotoxicity call in the experiment with HSkMC and with HepG2 was “inactive” throughout. In addition, in the experiment on S. aureus RN4220, the growth inhibition call is “inactive”.
For `COc1ccc(S(=O)(=O)N2C[C@@H](O)COC[C@@H]3O[C@@H](CC(=O)NCCN4CCCCC4)CC[C@H]32)cc1`, the cytotoxicity call in the experiment with HSkMC and in the experiment with HepG2 was “inactive” in each case. In the experiment with S. aureus RN4220, the growth inhibition call is “inactive”.
For `C[C@H](CO)N1C[C@H](C)[C@H](CN(C)S(=O)(=O)c2ccc(Cl)cc2)Oc2ccc(NC(=O)Nc3ccc(C(F)(F)F)cc3)cc2C1=O`, the cytotoxicity call with HSkMC and in the experiment with HepG2 was “active” in each case. In the experiment with S. aureus RN4220, the growth inhibition call was “inactive”.
Turning to `Cc1ccc(S(=O)(=O)N(C)C[C@H]2Oc3ccc(NS(=O)(=O)c4ccccc4)cc3C(=O)N([C@@H](C)CO)C[C@@H]2C)cc1`, the cytotoxicity call in the experiment on HSkMC and with HepG2 was “inactive” in each case. For the same compound, the growth inhibition call with S. aureus RN4220 is “inactive”.
As for `COc1ccc(S(=O)(=O)N(C)C[C@@H]2Oc3c(NS(=O)(=O)c4ccc(F)cc4)cccc3C(=O)N([C@@H](C)CO)C[C@@H]2C)cc1`, the cytotoxicity call in the experiment with HSkMC and in the experiment with HepG2 was “inactive” in each case. The growth inhibition call in the experiment with S. aureus RN4220 was “inactive”.
Consider `C[C@@H]1CCCCO[C@@H](CN(C)C(=O)Nc2ccc(C(F)(F)F)cc2)[C@@H](C)CN([C@H](C)CO)C(=O)c2cc(NC(=O)Nc3cccc4ccccc34)ccc2O1`, for which the cytotoxicity call with HSkMC and in the experiment with HepG2 was “inactive” throughout. For the same compound, the growth inhibition call with S. aureus RN4220 is “inactive”.
Turning to `CO[C@H]1CN(C)C(=O)c2cc(NS(=O)(=O)c3cn(C)cn3)ccc2OC[C@H](C)N(CCC(F)(F)F)C[C@H]1C`, the cytotoxicity call in the experiment on HSkMC and in the experiment on HepG2 was “inactive” throughout. Besides, the growth inhibition call with S. aureus RN4220 is “inactive”.
For the compound `O=C1CNC(=O)N1C1CCNCC1`, the cytotoxicity call in the experiment with HSkMC and in the experiment with HepG2 was “inactive” throughout. In addition, in the experiment on S. aureus RN4220, the growth inhibition call was “inactive”.
Regarding `COc1ccc(NC(=O)N(C)C[C@H]2OCCCC[C@H](C)Oc3ccc(NC(=O)c4ccncc4)cc3C(=O)N([C@@H](C)CO)C[C@@H]2C)cc1`, the cytotoxicity call with HSkMC and in the experiment with HepG2 was “inactive” each time. Besides, the growth inhibition call in the experiment with S. aureus RN4220 is “inactive”.
For `C[C@@H]1CN([C@@H](C)CO)C(=O)Cc2cc(NC(=O)c3ccncc3)ccc2O[C@H]1CN(C)Cc1ccc(-c2ccccc2)cc1`, the cytotoxicity call in the experiment with HSkMC was “inactive”. Also, in the experiment on HepG2, the cytotoxicity call is “active”. Further, in the experiment on S. aureus RN4220, the growth inhibition call is “inactive”.
Turning to `C[C@@H]1CN([C@@H](C)CO)C(=O)c2cccc(NC(=O)CCCCCC(=O)Nc3ccccc3N)c2O[C@@H]1CN(C)C(=O)Nc1cccc2ccccc12`, the cytotoxicity call in the experiment on HSkMC (human skeletal muscle cells) and in the experiment on HepG2 was “inactive” in each case. The growth inhibition call in the experiment with S. aureus RN4220 was “inactive”.
